Assay [1] addresses T1, CHCHD4-AIA-HA (I12A/F14A) (human) (UniProt Q8N4Q1).
T1 sequence: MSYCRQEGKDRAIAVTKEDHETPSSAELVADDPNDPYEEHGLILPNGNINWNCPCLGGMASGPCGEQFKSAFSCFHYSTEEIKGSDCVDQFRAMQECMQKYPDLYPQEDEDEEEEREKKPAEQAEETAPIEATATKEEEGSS
The experiment in a line: co-IP; 293T cells transfected with HA-tagged CHCHD4 constructs; whole-cell lysate (25 mM HEPES pH 7.5, 150 mM NaCl, 5 mM TCEP, 0.5 mM EDTA, 0.1% Tween-20) precipitated with anti-HA and Protein G Dynabeads; blot for endogenous AIF.

Protein sequences, listed by entry. Tags and fused reporters are not part of them. Lines headed by an entry give the natural chain unless they say otherwise; changes in a name come on top.
UniProt O95831: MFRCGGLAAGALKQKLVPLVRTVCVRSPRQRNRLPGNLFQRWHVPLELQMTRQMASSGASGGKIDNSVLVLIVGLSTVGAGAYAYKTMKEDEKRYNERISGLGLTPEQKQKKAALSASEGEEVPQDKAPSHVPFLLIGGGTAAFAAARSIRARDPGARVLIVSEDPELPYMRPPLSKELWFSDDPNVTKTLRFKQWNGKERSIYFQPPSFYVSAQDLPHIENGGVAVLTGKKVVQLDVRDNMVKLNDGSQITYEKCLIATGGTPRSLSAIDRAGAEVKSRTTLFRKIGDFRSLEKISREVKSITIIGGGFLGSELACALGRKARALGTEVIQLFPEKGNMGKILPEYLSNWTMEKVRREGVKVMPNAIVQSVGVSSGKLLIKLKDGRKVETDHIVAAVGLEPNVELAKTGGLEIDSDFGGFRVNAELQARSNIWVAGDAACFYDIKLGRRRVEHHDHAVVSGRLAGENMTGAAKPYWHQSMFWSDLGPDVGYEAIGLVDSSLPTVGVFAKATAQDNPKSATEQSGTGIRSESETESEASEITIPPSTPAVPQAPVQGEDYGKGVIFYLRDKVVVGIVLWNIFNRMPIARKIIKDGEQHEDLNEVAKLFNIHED

Assay [2] addresses T2, ΔN-CHCHD4-HA (residues 40-142) (human) (UniProt Q8N4Q1).
T2 sequence: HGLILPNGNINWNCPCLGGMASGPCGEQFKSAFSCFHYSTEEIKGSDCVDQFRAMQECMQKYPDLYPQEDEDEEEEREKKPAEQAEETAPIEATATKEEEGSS
Described as above.

Assay [3] deals with T3, CHCHD4-SX9S-HA (C64S/C74S/C87S/C97S) (human) (UniProt Q8N4Q1).
T3 sequence: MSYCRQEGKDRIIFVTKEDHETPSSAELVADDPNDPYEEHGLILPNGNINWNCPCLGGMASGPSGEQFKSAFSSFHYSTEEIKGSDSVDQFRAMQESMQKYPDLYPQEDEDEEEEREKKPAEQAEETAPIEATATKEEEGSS
The assay is described as above.

The target of another assay is T4, CHCHD4-WT-HA (human) (UniProt Q8N4Q1).
T4 sequence: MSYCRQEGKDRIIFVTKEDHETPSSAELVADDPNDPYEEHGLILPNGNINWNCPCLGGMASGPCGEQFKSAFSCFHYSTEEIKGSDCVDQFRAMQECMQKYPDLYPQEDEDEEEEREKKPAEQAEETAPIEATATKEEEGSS
The description is as above.

Assay [4] has as its target T5, CHCHD4-AIA-A-HA (I12A/F14A/H20A) (human) (UniProt Q8N4Q1).
T5 sequence: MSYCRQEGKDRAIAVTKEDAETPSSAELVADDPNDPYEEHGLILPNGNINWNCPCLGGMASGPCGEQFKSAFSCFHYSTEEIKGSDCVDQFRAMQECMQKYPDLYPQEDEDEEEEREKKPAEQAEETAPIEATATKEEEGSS
Described as above.

In assay [5] the target is T6, CHCHD4-SPS-HA (C53S/C55S) (human) (UniProt Q8N4Q1).
T6 sequence: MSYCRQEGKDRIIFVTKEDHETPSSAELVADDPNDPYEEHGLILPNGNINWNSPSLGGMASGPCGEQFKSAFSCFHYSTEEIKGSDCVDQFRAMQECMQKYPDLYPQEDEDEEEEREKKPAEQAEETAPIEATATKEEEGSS
The assay is described as above.

The target in assay [6] is T7, CHCHD6, unfolded and reduced (human, UniProt Q9BRQ6 1-235).
T7 construct: CHCHD6 (MIC25), human, CX9C import substrate; construct from the DNASU Plasmid Repository inserted into pET30a; also called unfolded CHCHD6 substrate; MIC25; source: E. coli Rosetta2Gami(DE3), purified; unfolded by heating at 70 °C for 20 min with TCEP; not shown: GB1-6X-His, N-terminal, cleaved
T7 sequence (looked up): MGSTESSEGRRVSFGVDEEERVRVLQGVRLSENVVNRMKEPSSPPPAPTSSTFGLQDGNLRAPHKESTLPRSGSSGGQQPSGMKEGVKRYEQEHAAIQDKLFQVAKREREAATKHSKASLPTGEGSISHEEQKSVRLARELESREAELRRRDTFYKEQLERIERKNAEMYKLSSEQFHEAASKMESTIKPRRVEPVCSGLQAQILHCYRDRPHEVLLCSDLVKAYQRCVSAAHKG
Kind of assay: ITC; 700-750 µM CPC-inactivated CHCHD4 constructs titrated into 50 µM unfolded substrate; 25 mM HEPES pH 7.5, 150 mM NaCl, 1 mM TCEP; 25 °C; both purified.

Assay [7] has as its target T8, Atto488-ΔN-CHCHD4-SPS, unfolded (human) (UniProt Q8N4Q1).
T8 sequence (chain, ATTO 488 (NHS ester) on the N-terminus): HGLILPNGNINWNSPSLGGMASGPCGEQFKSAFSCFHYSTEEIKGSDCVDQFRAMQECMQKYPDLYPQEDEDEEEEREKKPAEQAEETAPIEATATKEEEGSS
The experiment in a line: condition: only with NADH but without AIF; up to 30 µM CHCHD4-SPS; MST; as a11 but with NADH only, no AIF (NADH control); both purified.

Assay [8] concerns the target T8, Atto488-ΔN-CHCHD4-SPS, unfolded (human). The experiment in a line: condition: only with AIF(78-613) but without NADH; up to 30 µM CHCHD4-SPS; MST; as a11 but with AIF(78-613) without NADH (unstimulated AIF monomer); both purified.
A further assay has as its target T9, AIF(78-613), wild type (human, UniProt O95831 78-613).
T9 construct: Apoptosis-inducing factor (AIF), human, residues 78-613, lacking the inner mitochondrial membrane tether; Construct from Brosey et al 2016; also called Apoptosis-inducing factor; AIF + NADH; source: E. coli Rosetta2(DE3), purified (Ni-NTA, PreScission cleavage, subtractive Ni-NTA, Superdex 200)
The experiment in a line: SEC-MALS; Superdex 200 10/300 in 25 mM HEPES pH 7.5, 150 mM NaCl, 0.02% sodium azide; AIF 33 µM, CHCHD4 50 µM with 5 mM TCEP, complexes with 120 µM NADH, incubated 10 min at room temperature; both purified. (Size exclusion chromatography separates by hydrodynamic size, large species first.)

Assay [9] addresses T10, Atto488-AIF(78-613)/NADH (human, UniProt O95831 78-613, ATTO 488 (NHS ester) on the N-terminus).
T10 construct: Apoptosis-inducing factor (AIF), human, residues 78-613; also called Atto488-AIF-NADH; Atto488-AIF/NADH
Kind of assay: MST; CHCHD4 interface mutants titrated (1.8 nM–15 or 30 µM) into 100 nM Atto488-AIF(78-613) with unlabeled AIF and NADH; same buffer, 25 °C; third block of Table 1 (Fig. 2A), fitted with a Hill coefficient; both purified.

Assay [10] concerns the target T10, Atto488-AIF(78-613)/NADH. Kind of assay: MST; CHCHD4 constructs titrated (1.8 nM–15 or 30 µM) into 100 nM Atto488-AIF(78-613) with unlabeled AIF and NADH (pre-formed charge-transfer complex); 25 mM HEPES pH 7.5, 150 mM NaCl, 0.01% Tween-20, 5 mM TCEP; 25 °C; first block of Table 1 (Fig. 1B); both purified.
Assay [11] deals with ΔN-CHCHD4-SPS (residues 40-142, C53S/C55S) (human) (UniProt Q8N4Q1). Kind of assay: SEC; Superdex 75 10/300, 25 mM HEPES pH 7.5, 150 mM NaCl, without reducing agent (also ± 5 mM βME and after 0-10 mM TCEP); 200 µM samples; monomer against disulfide-mediated dimer; both purified.

No constants are given. Whether binding was seen depends on the method and setting. For some assays here: Binding seen in cells or lysates may run through a third protein. Some entries that bind do so weakly or less than the wild type. For some assays here: Tags and fused reporters may be left off the sequences shown.

As to “endogenous AIF (293T cells) (from UniProt O95831 102-613)”, the binding result in assay [1] is “no binding”; in [2], “no binding”; in assay [3], “binds”; with CHCHD4-WT-HA (human), “binds”; in [4], “no binding”; in [5], “binds”.

B1: CHCHD4-SPS (C53S/C55S), full length (natural protein, human, UniProt Q8N4Q1 1-142, looked up)
chain: MSYCRQEGKDRIIFVTKEDHETPSSAELVADDPNDPYEEHGLILPNGNINWNSPSLGGMASGPCGEQFKSAFSCFHYSTEEIKGSDCVDQFRAMQECMQKYPDLYPQEDEDEEEEREKKPAEQAEETAPIEATATKEEEGSS
notes: source: E. coli Rosetta2Gami(DE3), purified (Ni-NTA, PreScission cleavage, subtractive Ni-NTA, Superdex 75); not shown: GB1-6X-His, N-terminal, cleaved
With B1, the figures for the binding entry in assay [6], in [7] and in assay [8] were “binds weakly”, “no binding” and “no binding”, respectively.

B2: CHCHD4-AIA-A (I12A/F14A/H20A) (protein, UniProt Q8N4Q1 1-142)
chain: MSYCRQEGKDRAIAVTKEDAETPSSAELVADDPNDPYEEHGLILPNGNINWNCPCLGGMASGPCGEQFKSAFSCFHYSTEEIKGSDCVDQFRAMQECMQKYPDLYPQEDEDEEEEREKKPAEQAEETAPIEATATKEEEGSS
Take B2: the binding entry in the assay with AIF(78-613), wild type is reported as “no binding (tested: 50 µM)”; with Atto488-AIF(78-613)/NADH [9] it was “no binding (tested: 15 (or 30) µM)”.

B3: CHCHD4-H20D (protein, UniProt Q8N4Q1 1-142)
chain: MSYCRQEGKDRIIFVTKEDDETPSSAELVADDPNDPYEEHGLILPNGNINWNCPCLGGMASGPCGEQFKSAFSCFHYSTEEIKGSDCVDQFRAMQECMQKYPDLYPQEDEDEEEEREKKPAEQAEETAPIEATATKEEEGSS
On to B3, for which the binding entry with Atto488-AIF(78-613)/NADH [9] is listed as “no binding (tested: 15 (or 30) µM)”.

B4: ΔN-CHCHD4 (residues 40-142) (domain or fragment, human, UniProt Q8N4Q1 40-142, looked up)
chain: HGLILPNGNINWNCPCLGGMASGPCGEQFKSAFSCFHYSTEEIKGSDCVDQFRAMQECMQKYPDLYPQEDEDEEEEREKKPAEQAEETAPIEATATKEEEGSS
notes: also called N-terminal truncation mutant; source: E. coli Rosetta2Gami(DE3), purified (Ni-NTA, PreScission cleavage, subtractive Ni-NTA, Superdex 75); not shown: GB1-6X-His, N-terminal, cleaved
With B4, the binding result with Atto488-AIF(78-613)/NADH [10] is given as “no binding (tested: 15 (or 30) µM)”.

B5: ΔN-CHCHD4-SPS (residues 40-142, C53S/C55S) (domain or fragment, human, UniProt Q8N4Q1 40-142, looked up)
chain: HGLILPNGNINWNSPSLGGMASGPCGEQFKSAFSCFHYSTEEIKGSDCVDQFRAMQECMQKYPDLYPQEDEDEEEEREKKPAEQAEETAPIEATATKEEEGSS
notes: Folded, as titrant in ITC and in analytical SEC; also called ΔN-SPS; source: E. coli Rosetta2Gami(DE3), purified (Ni-NTA, PreScission cleavage, subtractive Ni-NTA, Superdex 75); not shown: GB1-6X-His, N-terminal, cleaved
Consider B5, for which the binding entry in assay [11] is “no binding (tested: 200 µM)”.
